Data: US20180015075A1, “METHODS AND COMPOSITIONS FOR TREATMENT OF VENOUS MALFORMATION” (Children's Hospital Medical Center, priority 2016, published 2018)

Test system: TIE2, c-ABL, AKT, PLCγ1, ERK phosphorylation in HUVEC-TIE2-L914F
Assay: Immunoblotting (Western blot) of treated cells
Assay type: cell-based, human
Details: 500 nM Ponatinib for 1 hour

`Cc1ccc(C(=O)Nc2ccc(CN3CCN(C)CC3)c(C(F)(F)F)c2)cc1C#Cc1cnc2cccnn12` [Ponatinib, 3-(2-imidazo[1,2-b]pyridazin-3-ylethynyl)-4-methyl-N-[4-[(4-methyl-1-piperazinyl)methyl]-3-(trifluoromethyl)phenyl]-benzamide] was tested, and the “activation of TIE2 downstream effector AKT” value was “reduced activation”.
